This test has as its target T1, CHOK1 cells engineered to overexpress human CCR2 (Homo sapiens, UniProt P41597).
T1 construct: expressed in transfected cells; host or cells: CHOK1 cells
Kind of test: Antibody dependent cellular cytotoxicity (ADCC) reporter assay (Example 199). The test is classed as cell-based. The note with it: with anti-cotinine antibody SEQ ID NO: 11/12; CHOK1-human CCR2 target cells, Jurkat FcγRIIIa NFAT-luciferase reporter cells; 12-18 hours; read-out: ADCC Reporter Assay pEC50 (converted). Here is the method: An antibody dependent cellular cytoxicity reporter assay was conducted using the following four assay components: (i) ARM compound of Formula (I) targeting CCR2 (concentrations ranging from 1 pM to 10 μM) (ii) anti-cotinine antibody having a heavy chain sequence of SEQ ID NO: 11 and a light chain sequence of SEQ ID NO: 12 (rabbit variable region with human IgG1 Fc domain containing a DE mutation (S239D/1332E)) (concentrations ranging from 0.01 μg/mL to 200 μg/mL); (iii) target cells: CHOK1 cells engineered to overexpress either human CCR2 (typically 1000-20,000 cells per well) and (iv) reporter cells: Jurkat cells engineered to express FcγRIIIa with the reporter gene luciferase under the control of the NFAT promoter (typically 3000-75,000 cells per well). Reagents were combined in a final volume of 20 μL in a 384-well tissue culture treated plate. […] Luminescence signal was measured on a microplate reader and signal:background was calculated by dividing the signal of a test well by the signal obtained when no heterobivalent compound of Formula (I) was added. […]
ARMs compounds of Formula (I) of the invention were tested for ADCC activity in the above assay in or more experimental runs and the results are shown in Table 3 below. […] The pEC50 value is the negative log of the EC50 value, wherein the EC50 value is the half maximal effective concentration measured in molar (M). […]
On the technique in general: In a reporter assay the amount or activity of a reporter protein is the signal.

The source holds more than one record for some entries. Only these are listed. There may be further records. The records of an entry seem to repeat one measurement on other runs, samples or individuals.

As for `CC(C)N(C)[C@@H]1CC[C@H](N2CC[C@H](Nc3ncnc4ccc(C(F)(F)F)cc34)C2=O)[C@H](NC(=O)[C@H]2CC[C@@H](CC(=O)CCCOC[C@H]3CC[C@H](COCCNC(=O)[C@H]4CC(=O)N(C)[C@@H]4c4cccnc4)CC3)CC2)C1` [Example 60], the EC50 is 0.01 nM and 0.158 nM [one cell]. Next, `CC(C)N(C)[C@@H]1CC[C@H](N2CC[C@H](Nc3ncnc4ccc(C(F)(F)F)cc34)C2=O)[C@H](NC(=O)[C@H]2CC[C@@H](NC(=O)CCCOC[C@H]3CC[C@@H](COCCNC(=O)[C@H]4CC(=O)N(C)[C@@H]4c4cccnc4)CC3)CC2)C1` [Example 61]: 0.01 nM and 0.2 nM [one cell].

For the origin of these results see US20250136722A1, “CYTOTOXICITY TARGETING CHIMERAS” (GLAXOSMITHKLINE INTELLECTUAL PROPERTY DEVELOPMENT LIMITED, priority 2021, published 2025).
